The source of these data is ChEMBL document CHEMBL4888484, “Replenishing the malaria drug discovery pipeline: Screening and hit evaluation of the MMV Hit Generation Library 1 (HGL1) against asexual blood stage Plasmodium falciparum ,using a nano luciferase reporter read-out” (2022).

Hit rate of the full screen: of about 150,000 compounds, about 540 (0.36%) showed an effect of 50% or more. Some of the results follow.

The test concerns Plasmodium falciparum. Description: Primary screen in NF54 nanoGlo assay, in single point, at 2uM, 72h; a lower Z score goes with more inhibition. In kind it is functional, Erythrocyte. To be noted: timepoint 72 hour.
What is called % Inhibition is the relative decrease from the control value, in per cent. In the case of `CC1CCCCC1OCCN1CCOCC1` (stereo not drawn), the “% Inhibition” value is given as -5% and the Z score is reported as 0.48.
On to `N#Cc1csc(CNc2ncccn2)c1`, for which the “% Inhibition” value came out at 2% and the Z score is reported as -0.22.
On to `N#CCC1(CNC(=O)N2CCc3ccccc3CC2)CC1`, for which the “% Inhibition” value is listed as -1% and the Z score worked out at 0.19.
Take `Cc1nc2ccccc2n1[C@H]1CCN(S(C)(=O)=O)C1`: the “% Inhibition” value is -3% and the Z score was found to be 0.57.
The like results for `CC(=O)Nc1ccc(S(=O)(=O)N2CCc3c(c(-c4nnc(-c5ccc(C)cc5)o4)nn3C)C2)cc1` were, in that order, -14% and 1.58.
In the case of `COc1nc(CNS(C)(=O)=O)nc(N2CCCC2)n1`, the “% Inhibition” value came to 7% and the Z score is reported as -1.01.
As to `NCC[C@H]1CN(C(=O)Nc2ccc(Oc3ccccc3)c(Cl)c2)CCO1`, the “% Inhibition” value amounted to 11% and the Z score was -1.47.
For `C=CCCS(=O)(=O)NC[C@H]1CCCN1CC`, in that order: -15% and 2.14.
The like results for `Cn1cc(C(=O)N[C@@H]2COC3(CCCC3)C2)c(=O)[nH]c1=O` were, in that order, 10% and -1.35.
The like results for `O=c1c2ccccc2ncn1C[C@H]1CC[C@H](C(=O)N2CCN(Cc3ccccc3)CC2)CC1` were, in that order, 1% and -0.18.
Regarding `CCCNC(=O)Cc1noc([C@@H]2CCCN2S(=O)(=O)c2ccccc2)n1`, the “% Inhibition” value stood at 2% and the Z score is -0.22.
For `CC(C)CCC(=O)N1CCC[C@H](CN2CCN(c3ccccn3)CC2)C1`, in that order: -6% and 0.81.
The like results for `Cc1ccc(NC(=O)c2nc(C3CCC3)oc2C)cc1F` were, in that order, 3% and -0.43.
As for `C=C(C)CN1CCC(N[C@H]2CCCc3nc(C)sc32)CC1`, the “% Inhibition” value is listed as -11% and the Z score came out at 1.25.
Take `CC(NC(=O)NC1CCc2cnn(C(C)C)c2C1)C(=O)NCCF` (stereo not drawn): the “% Inhibition” value is 0% and the Z score is 0.06.
On to `C[C@@H](Cn1ccnc1-c1ccnc2ccccc12)Oc1cccnc1`, for which the “% Inhibition” value is recorded as -5% and the Z score is given as 0.78.
The like results for `O=C(Nc1ccc(Cl)cn1)c1ccn(COc2ccc(Br)cc2Cl)n1` were, in that order, -10% and 1.13.
The like results for `COc1ccc(CCNC(=O)N2CC[C@H](S(C)(=O)=O)C2)cc1F` were, in that order, 3% and -0.3.
The like results for `c1cnc(N2CCN(C3CCCCCC3)CC2)cn1` were, in that order, 8% and -0.91.
With `CCc1nncn1C1CCN(S(=O)(=O)c2cc(F)cc(F)c2)CC1`, the “% Inhibition” value is reported as -2% and the Z score was determined as 0.31.
For `C[C@H](NC(N)=O)C(=O)Nc1ccc(N(C)C)nc1`, in that order: -14% and 1.89.
The like results for `O=S(=O)(NCC1CCCCCC1)c1ccoc1` were, in that order, -6% and 0.98.
For `Cc1noc([C@H]2CCN(C(=O)Nc3cnn(C(C)C)c3)C2)n1`, in that order: -10% and 1.69.
For the compound `O=C1CC[C@@H]2CN(c3cnccn3)CC[C@@H]2N1CCC1=CCCCC1`, the “% Inhibition” value was -7% and the Z score was determined as 0.91.
For `CCCCCN1CC(=O)N[C@@H]1c1csnn1`, in that order: -19% and 2.89.
The like results for `c1ccc(-n2nc(C3CC3)nc2COC[C@H]2CCCO2)cc1` were, in that order, -8% and 1.64.
The like results for `NC(=O)c1ccc(OCC(F)(F)F)cc1` were, in that order, -1% and 0.15.
For the compound `CC(C)c1csc(C2CCCN(C(C(=O)O)c3ccccc3F)C2)n1` (stereo not drawn), the “% Inhibition” value is given as -3% and the Z score came out at 0.53.
`CC(C)(C)c1ccc(S(=O)(=O)CC2=NN=C(O)c3ccccc3O2)cc1`: the “% Inhibition” value is on record as -10% and the Z score is on record as 1.93.
The like results for `CN(C)c1nc(NCc2cc(C(C)(C)C)n[nH]2)ncc1F` were, in that order, 5% and -0.96.
On to `CNC(=O)CN(CC(=O)NC)Cc1ccc(COCc2ccccc2)cc1`, for which the “% Inhibition” value was 29% and the Z score is on record as -3.26.
The like results for `COc1ccc(NC(=O)[C@H]2CCN(c3cnn(C)c(=O)c3)C2)cc1` were, in that order, -6% and 1.08.
Regarding `COc1ccccc1CCN(C)C(=O)[C@@H]1CNCCO1`, the “% Inhibition” value is given as -19% and the Z score is given as 2.17.
For `C[C@H]1CN(C(=O)c2cccc(-c3nc(N)nc4[nH]cnc34)c2)CCCO1`, in that order: 1% and -0.27.
Turning to `Nc1ccnc(N2CCC(CO)(CCCc3ccccc3)CC2)n1`, the “% Inhibition” value is on record as 3% and the Z score is -0.45.
The like results for `Cn1cc([C@]2(C)NC(=O)N(Cc3ncc(C(C)(C)C)o3)C2=O)cn1` were, in that order, -6% and 0.7.
For `Cn1ncc2c(N3CCNC(=O)CC3)ncnc21`, in that order: -4% and 0.6.
Consider `NS(=O)(=O)c1cnc(NCCC(=O)N2CCCCCC2)s1`, for which the “% Inhibition” value turned out to be 2% and the Z score is -0.37.
`CC1CN(C(=O)C2OCC3COCCC32)CC(C)[S+]1[O-]` (stereo not drawn): the “% Inhibition” value was -2% and the Z score is given as 0.44.
On to `CN(CCN1CCOCC1)[C@@H](C(=O)O)c1cccc(-c2ccccc2)c1`, for which the “% Inhibition” value is 1% and the Z score is listed as -0.16.
As for `COC(=O)n1ccc(C(=O)Nc2ccc(C)cc2C)n1`, the “% Inhibition” value is -1% and the Z score worked out at 0.23.
For `COc1ccc2[nH]nc(CN3CCCC[C@@H]3CCc3nccn3C)c2c1`, the “% Inhibition” value came to 3% and the Z score was -0.45.
Regarding `CCn1cc(CN(C)C(=O)c2nc3n(n2)CCCN3)cn1`, the “% Inhibition” value is recorded as -1% and the Z score was 0.12.
Turning to `Cc1ccccc1-c1nnc(N2CCC(N3CCCS3(=O)=O)CC2)n1C`, the “% Inhibition” value was -17% and the Z score is recorded as 2.48.
